# According to PubChem BioAssay (NCATS):
# The inconclusive results got no clear call from the source; some entries with a clear call stand among them for comparison. For some of these results: No potency is given beside an inconclusive call; the fits are too rough. Active and inactive are the calls of the source. Unless noted, calls follow the shape of the dose curve; as a rule, active = well fitted curve in the direction sought with a large enough effect; inconclusive = small, poorly fitted or top-dose-only effect, or another doubt; inactive = no such curve, though single readings can be large; an effect the other way counts as inactive or inconclusive.
# Columns and labels:
# [1] = molecular target: Dual specificity protein kinase CLK4 (Homo sapiens) (UniProt Q9HAZ1); test: qHTS Assay for Inhibitors of CDC-like Kinase 4 (Kinase-Glo Assay) (AID 1770); conditions: recombinant Clk4, Kinase-Glo ATP depletion luminescence; series mostly up to 66.7 µM; also: nearly all actives have a fitted effect of over 65% in size; also: potency is read from the fitted curve at half-maximal effect
# Procedure, shortened: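 Clk4 25 nM, RS peptide 100 uM, ATP 1 uM, pH 7.5 Tris, 10 mM MgCl2, 2.5 mM DTT; 4.5 h RT; ATP depletion read by Kinase-Glo luminescence.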
# [2] = molecular target: Dual specificity protein kinase CLK4 (Homo sapiens) (UniProt Q9HAZ1); test: qHTS Assay for Inhibitors of CDC-like Kinase 4 (ADP-Glo Assay) (AID 1771); conditions: recombinant CLK4, ADP-Glo luminescence; series mostly up to 80 µM; also: nearly all actives have a fitted effect of over 70% in size; also: potency is read from the fitted curve at half-maximal effect
# Procedure, shortened: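 In this ADP-Glo format, 1 uM ATP and 100 uM RS peptide served as substrates for 25 nM Clk4 in Mg2+/EGTA/DTT/Triton buffer; reactions ran 1 hr at room temperature before luminescent ADP quantification.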
# [3] = molecular target: Dual specificity protein kinase CLK4 (Homo sapiens) (UniProt Q9HAZ1); test: qHTS Assay for Inhibitors of CDC-like Kinase 4 (ADP-FP Assay) (AID 1795); conditions: Transcreener ADP fluorescence polarization; series mostly up to 50 µM; also: potency is read from the fitted curve at half-maximal effect;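 also: recombinant human CLK4 phosphorylating RS repeat peptide at 1 µM ATP; nearly all actives have a fitted effect of over 60% in size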; as to activity change, negative = inhibition: % is scaled to controls: 0 for no effect and ±100 for the full control effect
# Procedure, shortened: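 Kinase activity was followed as ADP output, converted from fluorescence polarization with a calibration curve. Reactions ran one hour at low ATP (1 uM) with RS peptide substrate.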
# [4] = molecular target: 3',5'-cyclic-AMP phosphodiesterase 4B (Homo sapiens) (UniProt Q07343); test: qHTS Assay for Inhibitors of PDE-IV (AID 607; active = well fitted activation curve with a large enough effect in the main read-out, with a control signal flat, not every such curve was filed as active; inconclusive = small, poorly fitted or top-dose-only effect, or effect the other way, or a change in a side signal; also: potency is read from the fitted curve at half-maximal effect; as to activation (PDE inhibition): % of control where 0% means no effect); conditions: HEK293 ACTOne CNG channel cells, membrane potential fluorescence; activation (PDE inhibition): at 22.9 µM (top of the series)
# Procedure, shortened: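 The readout is membrane depolarisation from a cAMP-sensing CNG channel, detected with a potential dye at ex 535/em 590. Cells were HEK293-derived (endogenous PDE-IV) at 1000 cells/well, titrated up to 22.9 uM final.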
# [5] = qHTS Assay for Identification of Small Molecule Agonists for Hypoxia Response Element Signaling Pathway (AID 914; active = well fitted activation curve with a large enough effect in the signal ratio, with a control signal flat, not every such curve was filed as active; inconclusive = small, poorly fitted or top-dose-only effect, or effect the other way, or a change in a side signal; the % refers to the signal ratio; also: potency is read from the fitted curve at half-maximal effect); conditions: ME-180 HRE-bla reporter, beta-lactamase ratio, CoCl2, 17 h; activation: hits give high values
# Procedure, shortened: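 Reporter activity (beta-lactamase, CCF4 460nm/530nm ratio) in HRE-bla ME-180 cells is recorded after 17 h compound exposure with EC50 CoCl2 at 37 degrees Celsius. AC50 values come from titration data.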
# [6] = molecular target: Ubiquitin carboxyl-terminal hydrolase 1 (Homo sapiens) (UniProt O94782); test: Inhibitors of USP1/UAF1: Pilot qHTS (AID 504865); conditions: purified USP1/UAF1, Ub-rhodamine cleavage fluorescence; series mostly up to 54.9 µM;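 also: rhodamine fluorescence freed from ubiquitin-rhodamine substrate followed over time; potency is read from the fitted curve at half-maximal effect; nearly all actives have a fitted effect of over 35% in size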
# Procedure, shortened: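 Enzyme-free wells gave the negative control, while test wells held 1nM USP1/UAF1 preincubated with compound for 15 min at room temperature. Ub-Rho at 150nM final started the reaction, and fluorescence at 480/540 nm was recorded kinetically.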
# [7] = molecular target: Glucocorticoid receptor (Homo sapiens) (UniProt P04150); test: GR-EFC Redistribution (AID 451; calls by dose curve; also: potency is read from the fitted curve at half-maximal effect); conditions: CHO-K1 GR-EFC translocation, beta-gal luminescence, 2 h
# Procedure, shortened: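 CHO-K1 cells stably expressing nuclear-localized β-gal enzyme acceptor and GR fused C-terminally to the enzyme donor fragment; ligand-driven nuclear translocation restores β-gal by complementation. Compounds titrated up to 46 uM final, 2 h at 37 °C; luminescence read.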
# [8] = molecular target: Glucocorticoid receptor (Homo sapiens) (UniProt P04150); test: GR-GFP Redistribution (AID 450;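 active = compounds whose dose series gives a full or clear partial fitted curve of increased nuclear translocation; inconclusive = weak partial curve or effect only at the top dose; inactive = no dose-dependent translocation response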; also: potency is read from the fitted curve at half-maximal effect); conditions: U2OS GR-GFP nuclear translocation, laser cytometry, 2 h
# [9] = NFAT Signaling Pathway (AID 444; active = well fitted curve in either direction with a large enough effect, not every such curve was filed as active; inconclusive = small, poorly fitted or top-dose-only effect, or another doubt;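 also: carbachol stimulus at about its EC50 of 1 µM final; % is scaled to controls: 0 for no effect and ±100 for the full control effect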); conditions: Jurkat NFAT-bla M1, carbachol, beta-lactamase ratio, 5 h; at 17.2 µM (top of the series) unless noted
# Procedure, shortened: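 Jurkat cells carrying an NFAT-driven β-lactamase reporter and co-transfected muscarinic M1 receptor were treated with compound plus carbachol (1 uM final, an EC50 level) for 5 h at 37 °C. CCF4 loading followed for 1 h at RT; 460/530 nm ratio gave %activity.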
# [10] = Stat Signaling Pathway (AID 446; active = well fitted curve in either direction with a large enough effect, not every such curve was filed as active; inconclusive = small, poorly fitted or top-dose-only effect, or another doubt;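 also: ME-180 cervical cancer cells given 40 pM IL-6 alongside compound; SIE-controlled beta-lactamase reporter measured as 460/530 nm FRET emission ratio; top concentration of the series differs between compounds; % is scaled to controls: 0 for no effect and ±100 for the full control effect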); conditions: ME-180 SIE beta-lactamase reporter, IL-6 stimulated, 5 h; at 7.69 µM (top of the series) unless noted
# Procedure, shortened: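 Emission at 460 and 530 nm (excitation 405 nm) reports SIE-controlled beta-lactamase in ME-180 cells. Cells received compound with 40 pM IL-6 for 5 hrs at 37 C; data scaled between 300 pM IL-6 and 125 nM JAK-inhibitor controls.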
# [11] = molecular target: Cytochrome P450 2D6 (Homo sapiens) (UniProt P10635); test: qHTS Assay for Inhibitors and Substrates of Cytochrome P450 2D6 (AID 891); conditions: recombinant CYP2D6, luciferin-ME EGE luminescence; activity change, negative = inhibition: at 57.1 µM (top of the series);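 also: luciferin methyl ether substrate demethylated by CYP2D6 with NADPH regeneration; nearly all actives have a fitted effect of over 60% in size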; also: potency is read from the fitted curve at half-maximal effect
# Procedure, shortened: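 Luminescent read-out of luciferin formed by 5 nM human CYP2D6 demethylating 30 uM Luciferin-ME EGE (Km level) over 60 min at room temperature after NADPH regeneration addition. Data normalized to full inhibition by 1.43 uM quinidine.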
# [12] = molecular target: Cytochrome P450 3A4 (Homo sapiens) (UniProt P08684); test: qHTS Assay for Activators of Cytochrome P450 3A4 (AID 885); conditions: recombinant CYP3A4, Luciferin-PPXE luminescence, 60 min; series mostly up to 57.1 µM; also: nearly all actives have a fitted effect of over 65% in size
# Procedure, shortened: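 Activators are scored by enhanced luminescence from CYP3A4 conversion of luciferin-PPXE (25uM, equal to KM) to luciferin, after 60 min at RT with an NADPH-regenerating system.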
# [13] = molecular target: Cytochrome P450 2C19 (Homo sapiens) (UniProt P33261); test: qHTS Assay for Inhibitors and Substrates of Cytochrome P450 2C19 (AID 899); conditions: recombinant CYP2C19, luciferin-H EGE luminescence; series mostly up to 11.4 µM; also: potency is read from the fitted curve at half-maximal effect; nearly all actives have a fitted effect of over 60% in size
# Procedure, shortened: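 In 50mM KPO4, the reaction held 5nM enzyme and KM-level (10uM) Luciferin-H EGE; it ran 60 min at 37C after NADPH regeneration and a 10 min compound preincubation. Luminescence values were scaled to 57uM ketoconazole as complete inhibition.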
# [14] = AP1 Signaling Pathway (AID 357; active = well fitted curve in either direction with a large enough effect, not every such curve was filed as active; inconclusive = small, poorly fitted or top-dose-only effect, or another doubt;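 also: ME-180 reporter cells stimulated with EGF at its EC50 level; top concentration of the series differs between compounds; % is scaled to controls: 0 for no effect and ±100 for the full control effect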); conditions: ME-180 (cervical carcinoma) AP-1-bla reporter, EGF-induced, beta-lactamase ratio, 5 h; at 17.2 µM (top of the series) unless noted
# Procedure, shortened: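 In this screen, ME-180 cells in Opti-MEM with 0.5% dialyzed FBS received EC50 EGF and compound titrations for 5 h. AP-1 reporter beta-lactamase was detected via CCF4 ratio, giving AC50 for positive and negative modulators.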
# [15] = molecular target: Cytochrome P450 2C9 (Homo sapiens) (UniProt P11712); test: qHTS Assay for Inhibitors and Substrates of Cytochrome P450 2C9 (AID 883); conditions: recombinant CYP2C9, luciferin-H luminescence, 60 min; activity change, negative = inhibition: at 57.1 µM (top of the series); also: potency is read from the fitted curve at half-maximal effect; nearly all actives have a fitted effect of over 60% in size
# Procedure, shortened: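 CYP2C9 deoxyluciferin hydroxylation, 37C, 60 min with NADPH regeneration; 10nM enzyme, 100uM Luciferin-H (KM). Glo detection reagent stopped reaction; luminescence normalized to sulphaphenazole (57uM) full inhibition.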
# Tags tell the direction and shape of the fitted curve or compound fluorescence and quenching.
# Chain of UniProt Q9HAZ1 (Q9HAZ1 whole entry, looked up): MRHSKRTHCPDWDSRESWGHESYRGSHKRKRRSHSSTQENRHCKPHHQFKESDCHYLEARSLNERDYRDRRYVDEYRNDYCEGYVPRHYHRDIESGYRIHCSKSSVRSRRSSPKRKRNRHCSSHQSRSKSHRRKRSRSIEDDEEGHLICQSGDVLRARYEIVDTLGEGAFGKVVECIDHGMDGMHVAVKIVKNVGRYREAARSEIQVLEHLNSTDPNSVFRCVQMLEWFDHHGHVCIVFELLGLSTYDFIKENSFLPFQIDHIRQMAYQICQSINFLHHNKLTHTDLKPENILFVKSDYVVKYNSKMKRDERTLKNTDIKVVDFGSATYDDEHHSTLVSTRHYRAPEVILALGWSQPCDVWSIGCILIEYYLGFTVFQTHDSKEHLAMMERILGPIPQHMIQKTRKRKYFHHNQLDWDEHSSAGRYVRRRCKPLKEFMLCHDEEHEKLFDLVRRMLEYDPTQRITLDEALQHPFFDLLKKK
# Chain of UniProt Q07343 (Q07343 whole entry, looked up): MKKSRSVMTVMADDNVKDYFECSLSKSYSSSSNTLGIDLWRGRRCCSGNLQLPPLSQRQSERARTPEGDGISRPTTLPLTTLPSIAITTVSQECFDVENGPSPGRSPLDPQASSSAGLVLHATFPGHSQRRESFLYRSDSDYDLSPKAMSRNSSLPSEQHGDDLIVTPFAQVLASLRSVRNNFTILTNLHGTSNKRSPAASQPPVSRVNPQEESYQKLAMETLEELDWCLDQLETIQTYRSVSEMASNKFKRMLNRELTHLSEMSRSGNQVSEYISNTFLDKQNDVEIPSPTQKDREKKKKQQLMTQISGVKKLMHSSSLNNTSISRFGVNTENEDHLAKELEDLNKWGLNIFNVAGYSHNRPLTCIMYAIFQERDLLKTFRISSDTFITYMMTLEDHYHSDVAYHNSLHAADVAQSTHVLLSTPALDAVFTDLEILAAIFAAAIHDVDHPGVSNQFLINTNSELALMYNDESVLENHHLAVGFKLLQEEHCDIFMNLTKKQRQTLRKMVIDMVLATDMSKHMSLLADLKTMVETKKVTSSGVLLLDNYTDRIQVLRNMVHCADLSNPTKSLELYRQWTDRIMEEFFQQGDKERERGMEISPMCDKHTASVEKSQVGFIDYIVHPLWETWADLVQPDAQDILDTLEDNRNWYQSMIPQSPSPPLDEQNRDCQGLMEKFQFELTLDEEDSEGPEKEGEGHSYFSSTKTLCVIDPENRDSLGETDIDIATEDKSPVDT
# Chain of UniProt P04150 (P04150 whole entry, looked up, the tested form may be a part): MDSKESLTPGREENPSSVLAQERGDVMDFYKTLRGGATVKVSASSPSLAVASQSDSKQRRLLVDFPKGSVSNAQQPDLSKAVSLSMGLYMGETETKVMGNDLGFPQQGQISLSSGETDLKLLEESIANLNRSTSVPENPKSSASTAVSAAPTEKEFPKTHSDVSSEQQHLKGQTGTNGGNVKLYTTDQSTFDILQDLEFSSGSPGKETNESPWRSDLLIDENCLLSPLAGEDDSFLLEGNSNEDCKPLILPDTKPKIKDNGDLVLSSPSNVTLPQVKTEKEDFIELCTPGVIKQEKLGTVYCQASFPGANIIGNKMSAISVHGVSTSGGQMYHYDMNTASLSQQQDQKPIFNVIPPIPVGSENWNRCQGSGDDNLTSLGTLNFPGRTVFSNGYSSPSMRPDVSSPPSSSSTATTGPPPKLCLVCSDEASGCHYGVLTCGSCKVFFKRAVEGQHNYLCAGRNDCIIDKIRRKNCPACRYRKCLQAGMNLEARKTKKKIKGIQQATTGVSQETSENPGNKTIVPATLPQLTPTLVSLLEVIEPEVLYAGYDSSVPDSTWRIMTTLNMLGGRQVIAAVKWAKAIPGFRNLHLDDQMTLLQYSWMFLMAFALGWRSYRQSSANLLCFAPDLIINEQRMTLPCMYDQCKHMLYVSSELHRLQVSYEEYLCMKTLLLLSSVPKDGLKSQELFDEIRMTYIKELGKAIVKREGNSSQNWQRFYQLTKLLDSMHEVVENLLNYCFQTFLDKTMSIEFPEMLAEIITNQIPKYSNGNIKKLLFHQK
# Chain of UniProt O94782 (O94782 whole entry, looked up): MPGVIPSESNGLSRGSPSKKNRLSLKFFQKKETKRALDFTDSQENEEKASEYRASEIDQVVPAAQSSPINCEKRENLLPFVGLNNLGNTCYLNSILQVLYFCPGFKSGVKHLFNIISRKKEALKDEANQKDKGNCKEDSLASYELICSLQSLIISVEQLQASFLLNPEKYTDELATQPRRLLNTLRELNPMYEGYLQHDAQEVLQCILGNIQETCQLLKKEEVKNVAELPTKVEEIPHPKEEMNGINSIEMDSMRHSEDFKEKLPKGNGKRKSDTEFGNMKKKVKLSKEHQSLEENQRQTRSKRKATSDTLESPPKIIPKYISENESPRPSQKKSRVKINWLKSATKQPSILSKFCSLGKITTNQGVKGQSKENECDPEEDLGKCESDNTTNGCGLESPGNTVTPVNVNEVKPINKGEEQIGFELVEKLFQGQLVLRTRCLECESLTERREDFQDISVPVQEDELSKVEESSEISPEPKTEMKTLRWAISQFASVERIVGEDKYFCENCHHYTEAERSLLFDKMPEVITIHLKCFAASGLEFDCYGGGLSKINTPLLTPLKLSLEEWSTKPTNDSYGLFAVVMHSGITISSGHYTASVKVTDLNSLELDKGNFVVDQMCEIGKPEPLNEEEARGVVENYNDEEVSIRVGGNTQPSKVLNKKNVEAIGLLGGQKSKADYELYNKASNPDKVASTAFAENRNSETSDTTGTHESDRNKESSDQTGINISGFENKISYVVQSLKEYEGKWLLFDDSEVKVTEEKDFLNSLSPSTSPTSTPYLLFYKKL
# Chain of UniProt P10635 (P10635 whole entry, looked up): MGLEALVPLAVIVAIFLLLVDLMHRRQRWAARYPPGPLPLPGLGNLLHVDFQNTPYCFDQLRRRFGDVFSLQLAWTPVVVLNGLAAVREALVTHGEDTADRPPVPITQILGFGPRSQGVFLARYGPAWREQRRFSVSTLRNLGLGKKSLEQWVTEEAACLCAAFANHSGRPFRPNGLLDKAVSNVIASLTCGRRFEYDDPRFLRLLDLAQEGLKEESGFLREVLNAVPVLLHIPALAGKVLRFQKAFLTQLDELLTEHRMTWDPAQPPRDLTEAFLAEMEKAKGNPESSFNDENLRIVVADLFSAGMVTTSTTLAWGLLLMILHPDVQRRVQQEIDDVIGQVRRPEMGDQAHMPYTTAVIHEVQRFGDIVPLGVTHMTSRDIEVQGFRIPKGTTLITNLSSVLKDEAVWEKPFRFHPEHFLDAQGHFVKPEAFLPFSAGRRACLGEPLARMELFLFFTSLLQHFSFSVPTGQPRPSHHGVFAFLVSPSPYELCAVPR
# Chain of UniProt P11712 (P11712 whole entry, looked up): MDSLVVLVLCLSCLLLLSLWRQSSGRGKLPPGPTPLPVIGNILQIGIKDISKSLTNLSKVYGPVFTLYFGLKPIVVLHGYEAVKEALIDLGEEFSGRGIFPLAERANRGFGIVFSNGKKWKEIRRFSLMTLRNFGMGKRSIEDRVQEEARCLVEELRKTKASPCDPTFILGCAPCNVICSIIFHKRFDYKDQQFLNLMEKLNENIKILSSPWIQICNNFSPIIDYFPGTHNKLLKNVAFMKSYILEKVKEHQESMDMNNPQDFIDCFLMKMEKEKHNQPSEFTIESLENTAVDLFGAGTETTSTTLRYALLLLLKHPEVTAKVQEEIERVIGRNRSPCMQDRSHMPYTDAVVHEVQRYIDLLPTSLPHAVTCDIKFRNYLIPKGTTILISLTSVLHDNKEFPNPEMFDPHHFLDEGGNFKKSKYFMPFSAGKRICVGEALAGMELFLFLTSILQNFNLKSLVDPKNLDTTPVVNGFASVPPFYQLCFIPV
# Chain of UniProt P08684 (P08684 whole entry, looked up): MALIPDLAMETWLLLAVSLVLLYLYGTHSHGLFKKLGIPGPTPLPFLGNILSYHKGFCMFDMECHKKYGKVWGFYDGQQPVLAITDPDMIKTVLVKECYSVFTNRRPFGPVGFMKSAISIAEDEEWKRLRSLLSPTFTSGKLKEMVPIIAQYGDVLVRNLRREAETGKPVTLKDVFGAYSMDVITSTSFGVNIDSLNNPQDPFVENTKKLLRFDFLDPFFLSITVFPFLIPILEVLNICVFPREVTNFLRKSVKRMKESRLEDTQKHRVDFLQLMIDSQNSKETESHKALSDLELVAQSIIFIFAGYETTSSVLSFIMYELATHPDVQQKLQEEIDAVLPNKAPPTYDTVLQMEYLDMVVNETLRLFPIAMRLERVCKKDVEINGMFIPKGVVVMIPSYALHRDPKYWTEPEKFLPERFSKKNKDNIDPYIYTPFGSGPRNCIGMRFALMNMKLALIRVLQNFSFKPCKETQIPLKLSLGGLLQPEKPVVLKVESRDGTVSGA
# Chain of UniProt P33261 (P33261 whole entry, looked up): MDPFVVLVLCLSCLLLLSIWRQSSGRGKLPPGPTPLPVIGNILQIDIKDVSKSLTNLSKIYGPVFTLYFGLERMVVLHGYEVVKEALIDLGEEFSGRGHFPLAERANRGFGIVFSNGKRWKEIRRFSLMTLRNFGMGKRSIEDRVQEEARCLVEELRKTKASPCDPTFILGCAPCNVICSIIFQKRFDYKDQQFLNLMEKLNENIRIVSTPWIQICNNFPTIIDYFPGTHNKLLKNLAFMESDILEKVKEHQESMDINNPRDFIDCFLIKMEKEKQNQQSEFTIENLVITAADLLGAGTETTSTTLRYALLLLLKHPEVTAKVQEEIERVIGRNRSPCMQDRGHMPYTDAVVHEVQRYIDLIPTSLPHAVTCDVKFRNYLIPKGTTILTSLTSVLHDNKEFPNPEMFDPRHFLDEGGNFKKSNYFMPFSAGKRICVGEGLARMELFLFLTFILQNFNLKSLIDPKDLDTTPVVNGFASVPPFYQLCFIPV
smiles,measurement,setting,value
N#Cc1ccccc1-c1ccc2ncnc(NCCN3CCOCC3)c2c1,Potency,[1],"inconclusive [falling, partial curve]"
same,Potency,[2],"inconclusive [falling, single point]"
Clc1ccccc1-c1nccc(NCCN2CCOCC2)n1,Potency,[1],"inconclusive [falling, partial curve]"
same,Potency,[2],"inconclusive [falling, single point]"
N#Cc1cccc(-c2cc(NCc3cccnc3)ncn2)c1,Potency,[1],"inconclusive [falling, partial curve]"
same,Potency,[2],"inconclusive [falling, partial curve]"
COc1ccccc1-c1nc(N2CCOCC2)c2ccccc2n1,Potency,[1],"inconclusive [falling, partial curve]"
CC(=O)NCCNc1nc(-c2ccc3c(c2)OCO3)nc2ccccc12,Potency,[1],"inconclusive [falling, single point]"
same,Potency,[2],"inconclusive [falling, partial curve]"
same,Potency,[3],"inconclusive [falling, single point]"
Cc1noc(C)c1-c1cc(NCc2cccnc2)ncn1,Potency,[1],active: 15.8 µM
same,Potency,[2],active: 22.4 µM
same,Potency,[3],"inconclusive [falling, partial curve]"
N#Cc1cccc(-c2nc(NCc3ccccc3)c3ccccc3n2)c1,Potency,[4],"inconclusive [activator, partial curve]"
same,Potency,[5],"inconclusive [inhibitor, partial curve]"
same,Potency,[1],"inconclusive [falling, partial curve]"
same,Potency,[2],"inconclusive [falling, partial curve]"
same,Potency,[3],"inconclusive [falling, full curve, poor fit]"
same,Potency,[6],active: 15.8 µM
CN(C)c1ncc2ncc(=O)n(C3CC3)c2n1,Potency,[1],"inconclusive [falling, partial curve]"
same,Potency,[2],"inconclusive [falling, partial curve]"
Fc1ccc(Nc2nc(-c3ccoc3)nc3ccccc23)cc1,Potency,[7],inactive: > 46 µM
same,Potency,[1],"inconclusive [falling, partial curve]"
same,Potency,[2],"inconclusive [falling, partial curve]"
same,Potency,[3],"inconclusive [falling, full curve, poor fit]"
COc1cccc(-c2cc(NCc3cccc(C)c3)ncn2)c1,Potency,[4],"inconclusive [rising, single point]"
same,Potency,[1],"inconclusive [falling, partial curve]"
same,Potency,[2],"inconclusive [falling, partial curve]"
same,Potency,[3],"inconclusive [falling, partial curve]"
same,Potency,[6],"inconclusive [inhibitor, partial curve, poor fit]"
CN(C)C(=O)c1ccc(-c2cc(N(C)Cc3ccco3)ncn2)cc1,Potency,[1],"inconclusive [falling, partial curve]"
COc1ccccc1CNc1cc(-c2ccccc2OC)ncn1,Potency,[1],"inconclusive [falling, single point]"
same,Potency,[2],"inconclusive [falling, single point]"
Cc1noc(C)c1-c1cc(NCCN2CCOCC2)ncn1,Potency,[1],active: 25.1 µM
Cn1cc(-c2nc3cncnc3n(CCN)c2=O)c2ccccc21,Potency,[8],inconclusive [single point]
same,Potency,[1],"inconclusive [falling, partial curve]"
same,Potency,[2],"inconclusive [falling, partial curve]"
same,Potency,[3],"inconclusive [falling, partial curve]"
Cc1ccccc1-c1cc(N(C)Cc2ccco2)ncn1,"activity change, negative = inhibition",[9],inactive: -15.6% [at 7.69 µM]
same,"activity, negative = inhibition",[10],inactive: 8.71%
same,Potency,[1],"inconclusive [falling, single point]"
same,Potency,[2],"inconclusive [falling, single point]"
same,Potency,[3],inactive
CNc1ncncc1-c1ccccc1C(F)(F)F,Potency,[1],inactive
same,Potency,[2],inactive
CCNc1ncc2nc(-c3cccs3)c(=O)n(C[C@H]3CCCO3)c2n1,Potency,[11],"inconclusive [inhibitor, full curve]"
CN(Cc1ccco1)c1cc(-c2cccnc2)ncn1,"activity, negative = inhibition",[10],inconclusive: 6.16% [activator]
COc1ccc2[nH]cc(CCNc3cc(-c4c(C)noc4C)ncn3)c2c1,Potency,[8],inconclusive [partial curve]
c1ccc(Nc2ncncc2-c2ccoc2)cc1,Potency,[8],inconclusive [partial curve]
COCCn1c(=O)c(C)nc2cnc(Oc3ccccc3)nc21,Potency,[7],inconclusive [single point]
CN(C)c1ncc2nc(-c3ccccc3)c(=O)n(C[C@H]3CCCO3)c2n1,Potency,[12],inactive
CCNc1ncc2nc(C)c(=O)n(-c3ccc(OC)cc3)c2n1,Potency,[11],inactive
COc1cccc(Cn2c(=O)cnc3cnc(Oc4ccccc4)nc32)c1,Potency,[13],"inconclusive [inhibitor, partial curve, poor fit]"
Cc1noc(C)c1-c1nc(NC2CC2)c2ccccc2n1,"activity change, negative = inhibition",[14],inactive: 13.4% [at 7.69 µM]
same,Potency,[4],inactive
same,Potency,[5],"inconclusive [activator, single point]"
same,Potency,[1],"inconclusive [falling, partial curve]"
same,Potency,[3],"inconclusive [falling, full curve]"
Cn1c(=O)c(-c2cc(F)cc(F)c2)nc2cnc(Nc3ccccc3)nc21,"activity change, negative = inhibition",[14],inactive: -3.31% [at 7.69 µM]
same,"activity change, negative = inhibition",[9],inactive: 6.94% [at 7.69 µM]
same,Potency,[1],inactive
COc1cccc(Cn2c(=O)c(-c3ccc(Cl)cc3)nc3cnc(OC)nc32)c1,Potency,[4],"inconclusive [activator, partial curve]"
same,Potency,[15],"inconclusive [inhibitor, partial curve]"
same,Potency,[1],inactive
same,Potency,[3],inactive
CN(C)c1ncc2nc(-c3cc(F)cc(F)c3)c(=O)n(-c3ccccc3)c2n1,"activity change, negative = inhibition",[9],inactive: 9.84% [at 7.69 µM]
same,Potency,[1],inactive
